Assay results reported in the supplement of paper PMC8728848.
The other results are listed elsewhere or left out.

Key:
Test in all cases: glycan array binding signal (z-score within array); higher = stronger binding
Conditions in all cases: glycan notation: IUPAC condensed, linker removed
[1] = molecular target: Gal(b1-3)GlcNAc(b1-2)Man(a1-3)[Gal(b1-3)GlcNAc(b1-2)Man(a1-6)]Man(b1-4)GlcNAc(b1-4)[Fuc(a1-6)]GlcNAc
Method in brief: (§1)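 Glycan array data came from 3228 arrays in the Consortium for Functional Glycomics database, and only arrays with an available protein sequence were kept. Glycan names were put into IUPAC-condensed notation, and columns mapping to the same glycan were averaged. The binding signal is a within-array Z-score, averaged across arrays of one protein sequence run at different concentrations or buffers and across linkers. A negative Z-score can be read as non-binding.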

[2] = molecular target: Gal(b1-3)GlcNAc(b1-2)Man(a1-3)[GlcNAc(b1-4)][Gal(b1-3)GlcNAc(b1-2)Man(a1-6)]Man(b1-4)GlcNAc(b1-4)GlcNAc
Method in brief: as §1

[3] = molecular target: Gal(b1-3)GlcNAc(b1-2)[Gal(b1-3)GlcNAc(b1-6)]Man(a1-6)[Gal(b1-3)GlcNAc(b1-2)Man(a1-3)]Man(b1-4)GlcNAc(b1-4)GlcNAc
Method in brief: as §1

[4] = molecular target: Gal(b1-3)GlcNAc(b1-3)Gal(b1-3)GlcNAc
Method in brief: as §1

[5] = molecular target: Gal(b1-3)GlcNAc(b1-3)Gal(b1-4)Glc
Method in brief: as §1

[6] = molecular target: Gal(b1-3)GlcNAc(b1-3)Gal(b1-4)GlcNAc
Method in brief: as §1

[7] = molecular target: Gal(b1-3)GlcNAc(b1-3)Gal(b1-4)GlcNAc(b1-2)Man(a1-3)[Gal(b1-3)GlcNAc(b1-3)Gal(b1-4)GlcNAc(b1-2)Man(a1-6)]Man(b1-4)GlcNAc(b1-4)GlcNAc
Method in brief: as §1

[8] = molecular target: Gal(b1-3)GlcNAc(b1-3)Gal(b1-4)GlcNAc(b1-2)[Gal(b1-3)GlcNAc(b1-3)Gal(b1-4)GlcNAc(b1-6)]Man(a1-6)[Gal(b1-3)GlcNAc(b1-3)Gal(b1-4)GlcNAc(b1-2)Man(a1-3)]Man(b1-4)GlcNAc(b1-4)[Fuc(a1-6)]GlcNAc
Method in brief: as §1

[9] = molecular target: Gal(b1-3)GlcNAc(b1-3)Gal(b1-4)GlcNAc(b1-3)Gal(b1-4)GlcNAc(b1-2)[Gal(b1-3)GlcNAc(b1-3)Gal(b1-4)GlcNAc(b1-3)Gal(b1-4)GlcNAc(b1-6)]Man(a1-6)[Gal(b1-3)GlcNAc(b1-3)Gal(b1-4)GlcNAc(b1-3)Gal(b1-4)GlcNAc(b1-2)Man(a1-3)]Man(b1-4)GlcNAc(b1-4)[Fuc(a1-6)]GlcNAc
Method in brief: as §1

[10] = molecular target: Gal(b1-3)GlcNAc(b1-3)Gal(b1-4)GlcNAc(b1-6)[Gal(b1-3)GlcNAc(b1-3)]Gal(b1-4)Glc
Method in brief: as §1

[11] = molecular target: Gal(b1-3)GlcNAc(b1-3)Gal(b1-4)[Fuc(a1-3)]GlcNAc
Method in brief: as §1

[12] = molecular target: Gal(b1-3)GlcNAc(b1-3)Gal(b1-4)[Fuc(a1-3)]GlcNAc(b1-6)[Gal(b1-3)GlcNAc(b1-3)]Gal(b1-4)Glc
Method in brief: as §1

[13] = molecular target: Gal(b1-3)GlcNAc(b1-3)GalNAc
Method in brief: as §1

[14] = molecular target: Gal(b1-3)GlcNAc(b1-6)Gal(b1-4)GlcNAc
Method in brief: as §1

[15] = molecular target: Gal(b1-3)GlcNAc(b1-6)GalNAc
Method in brief: as §1

[16] = molecular target: Gal(b1-3)GlcNAc(b1-6)[Gal(b1-3)]GalNAc
Method in brief: as §1

Gal(b1-3)GlcNAc6S = molecular target: Gal(b1-3)GlcNAc6S
Method in brief: as §1

[17] = molecular target: Gal(b1-3)[Fuc(a1-4)]GlcNAc
Method in brief: as §1

[18] = molecular target: Gal(b1-3)[Fuc(a1-4)]GlcNAc(b1-2)Man
Method in brief: as §1

[19] = molecular target: Gal(b1-3)[Fuc(a1-4)]GlcNAc(b1-2)Man(a1-3)[Gal(b1-3)[Fuc(a1-4)]GlcNAc(b1-2)Man(a1-6)]Man(b1-4)GlcNAc(b1-4)[Fuc(a1-6)]GlcNAc
Method in brief: as §1

[20] = molecular target: Gal(b1-3)[Fuc(a1-4)]GlcNAc(b1-3)Gal(b1-3)[Fuc(a1-4)]GlcNAc
Method in brief: as §1

[21] = molecular target: Gal(b1-3)[Fuc(a1-4)]GlcNAc(b1-3)Gal(b1-4)[Fuc(a1-3)]GlcNAc
Method in brief: as §1

[22] = molecular target: Gal(b1-3)[Fuc(a1-4)]GlcNAc(b1-6)GalNAc
Method in brief: as §1

[23] = molecular target: Gal(b1-3)[GlcNAc(b1-6)]GalNAc
Method in brief: as §1

[24] = molecular target: Gal(b1-3)[Neu5Ac(a2-6)]GalNAc
Method in brief: as §1

[25] = molecular target: Gal(b1-3)[Neu5Ac(a2-6)]GlcNAc(b1-4)Gal(b1-4)Glc
Method in brief: as §1

[26] = molecular target: Gal(b1-3)[Neu5Ac(b2-6)]GalNAc
Method in brief: as §1

Gal(b1-4)Gal = molecular target: Gal(b1-4)Gal
Method in brief: as §1

[27] = molecular target: Gal(b1-4)GalNAc(a1-3)[Fuc(a1-2)]Gal(b1-4)GlcNAc
Method in brief: as §1

[28] = molecular target: Gal(b1-4)GalNAc(b1-3)[Fuc(a1-2)]Gal(b1-4)GlcNAc
Method in brief: as §1

Gal(b1-4)Glc = molecular target: Gal(b1-4)Glc
Method in brief: as §1

Gal(b1-4)Glc6S = molecular target: Gal(b1-4)Glc6S
Method in brief: as §1

Gal(b1-4)GlcNAc = molecular target: Gal(b1-4)GlcNAc
Method in brief: as §1

[29] = molecular target: Gal(b1-4)GlcNAc(a1-6)Gal(b1-4)GlcNAc
Method in brief: as §1

Gal(b1-4)GlcNAc(b1-2)Man = molecular target: Gal(b1-4)GlcNAc(b1-2)Man
Method in brief: as §1

[30] = molecular target: Gal(b1-4)GlcNAc(b1-2)Man(a1-3)Man(b1-4)GlcNAc(b1-4)GlcNAc
Method in brief: as §1

[31] = molecular target: Gal(b1-4)GlcNAc(b1-2)Man(a1-3)[Gal(b1-4)GlcNAc(b1-2)Man(a1-6)]Man(b1-4)GlcNAc(b1-4)GlcNAc
Method in brief: as §1

B1: B160 (Bifidobacterium sp) (protein)
chain: MVSHNKRIVAALAAVAAMGIGLAGCGGSDTAGDTKSGSDGGVVNITYMHRLPDSEGMTLVNDIVAKWNKEHPNIQVKATKFDGNAADMIKKLETDVKAGNAPDLAQVGYAEVPEVFTKGLLQDVTDEAAKYKDDFASGPFALMQVDGKTYGLPQDTGPLTYFYNAAEFEKLGITVPKTADELIETAKKTAAQGKYIMTFTPDEAMMMMSGQAGASGPWYKVDGNSWVVNTQTKGSKAVADVYQQLIDNKAALTNPRWDASFDNSIQSGQLIGTVAAAWEAPLFIDSAGGTGAGEWKVTQLGDWFGNGTKTGANGGSGVAVLKGSKHPAEAMEFLDWFNTQVDDLVSQGLVVAATTADAKTPQKWSDYFSGQDVMAEFKTANDNMGDFTYMPGFSAVGAAMKQTAAKAADGSAKVSDVFDTAQKTSVDTLKNLGLSVKE
glycan array binding signal (z-score) [1]: -0.169
glycan array binding signal (z-score) [2]: -0.118
glycan array binding signal (z-score) [3]: -0.131
glycan array binding signal (z-score) [4]: -0.156
glycan array binding signal (z-score) [5]: 4.36
glycan array binding signal (z-score) [6]: 4.98
glycan array binding signal (z-score) [7]: 5.11
glycan array binding signal (z-score) [8]: 8.35
glycan array binding signal (z-score) [9]: 6.21
glycan array binding signal (z-score) [10]: 5.45
glycan array binding signal (z-score) [11]: -0.14
glycan array binding signal (z-score) [12]: 1.41
glycan array binding signal (z-score) [13]: -0.161
glycan array binding signal (z-score) [14]: -0.163
glycan array binding signal (z-score) [15]: -0.152
glycan array binding signal (z-score) [16]: -0.162
glycan array binding signal (z-score) (Gal(b1-3)GlcNAc6S): 6.55
glycan array binding signal (z-score) [17]: -0.185
glycan array binding signal (z-score) [18]: -0.128
glycan array binding signal (z-score) [19]: -0.053
glycan array binding signal (z-score) [20]: -0.141
glycan array binding signal (z-score) [21]: -0.156
glycan array binding signal (z-score) [22]: -0.112
glycan array binding signal (z-score) [23]: -0.172
glycan array binding signal (z-score) [24]: -0.039
glycan array binding signal (z-score) [25]: 6.71
glycan array binding signal (z-score) [26]: -0.186
glycan array binding signal (z-score) (Gal(b1-4)Gal): -0.159
glycan array binding signal (z-score) [27]: -0.144
glycan array binding signal (z-score) [28]: -0.192
glycan array binding signal (z-score) (Gal(b1-4)Glc): -0.171
glycan array binding signal (z-score) (Gal(b1-4)Glc6S): -0.168
glycan array binding signal (z-score) (Gal(b1-4)GlcNAc): -0.125
glycan array binding signal (z-score) [29]: -0.151
glycan array binding signal (z-score) (Gal(b1-4)GlcNAc(b1-2)Man): -0.176
glycan array binding signal (z-score) [30]: -0.173
glycan array binding signal (z-score) [31]: -0.168
